Reference: PubChem BioAssay AID686978 (National Center for Advancing Translational Sciences (NCATS), 2013)
Where “and” joins values, the source holds several entries; their conditions need not be identical. Equal values may be shown once. Hit rate of the full screen: of about 420,000 compounds, about 64,000 (15%) were called active. The inconclusive results got no clear call from the source; some entries with a clear call stand among them for comparison. Calls come from the whole dose curve; as a rule, active = well fitted inhibition curve with a large enough effect; inconclusive = small, poorly fitted or top-dose-only effect; inactive = flat fitted curve, though single readings scatter. Potencies of inconclusive entries are left out as doubtful fits.

Assay: qHTS for Inhibitors of human tyrosyl-DNA phosphodiesterase 1 (TDP1): qHTS in cells in absence of CPT; note: nearly all actives have a fitted effect of over 55% in size
Settings: DT40 Tdp1-/- hTDP1 cells, no CPT, ATP luminescence, 48 h; activity change, negative = growth inhibition: at 46.2 µM (top of the series) unless noted
Method in brief: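 DT40 Tdp1-/-;hTDP1 cells, no CPT (DMSO vehicle only), 400 cells/well; compounds pin-transferred; ≥48 hr, 37 °C; CellTiter-Glo 30 min RT dark, luminescence read.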
% is set by controls: 0 for no effect and ±100 for the full control effect; potency is the fitted concentration of half-maximal effect; tags give direction and shape of the fitted curve.

Row | SMILES | Potency | activity change, negative = growth inhibition
1 | CCN1CCN(C(c2cccc(OC)c2)c2c(O)cc(C)n(Cc3ccco3)c2=O)CC1 (configuration not stated) | inactive | –
2 | COc1ccc(C)cc1NC(=O)CN(C)S(=O)(=O)c1ccc2c(c1)CC(C)N2C(C)=O (configuration not stated) | inconclusive [inhibitor, partial curve, poor fit] | –
3 | CC(C)CNS(=O)(=O)c1ccc(S(=O)(=O)N2CCC3(CC2)OCCO3)cc1 | inconclusive [inhibitor, partial curve] | –
4 | Cc1ccccc1CN1CCN(C(=O)c2cccc3ccccc23)CC1 | inconclusive [inhibitor, single point] | –
5 | CCC(=O)Nc1ccc(Cl)c(NC(=S)NC(C)=O)c1 | inactive | –
6 | CCc1ccc(NC(=O)c2sc3nc(-c4ccccc4)cn3c2C)cc1 | inconclusive [inhibitor, partial curve] | –
7 | O=C(COC(=O)c1cc([N+](=O)[O-])ccc1NCCO)Nc1cccnc1Cl | inconclusive [inhibitor, single point] | –
8 | O=C1CC(C(=O)N2CCN(c3ccc(F)cc3)CC2)CN1CCc1ccccc1 (configuration not stated) | inconclusive [inhibitor, single point] | –
9 | N#C/C(=C(/O)c1ccc2c(c1)OCO2)c1nc2cc(C(F)(F)F)ccc2s1 | active: 14.6 µM | –
10 | Cn1cnnc1SCC(=O)Nc1ccc(N2CCOCC2)cc1 | inactive | –
11 | COc1cc(NC(=S)N2CCN(c3ccccn3)CC2)c(OC)cc1Cl | inconclusive [inhibitor, partial curve] | –
12 | O=C(C1CCN(c2nnnn2-c2ccccc2)CC1)N1CCN(c2ccccc2)CC1 | – | inconclusive: -33.1% [inhibitor]
13 | CCCN(CC(=O)Nc1ccccc1Br)CC(=O)Nc1ccc(F)c(F)c1F | inconclusive [inhibitor, single point] | –
14 | CC(C#N)Sc1ncnc2sc(-c3ccccc3)cc12 (configuration not stated) | inactive | –
15 | COC(=O)Cn1c(O)c(N=NC(=O)CNC(=O)COc2cccc(C)c2)c2ccccc21 | inconclusive [inhibitor, single point] | –
16 | COc1ccc(CN(C(=O)c2ccc(OCC(C)C)cc2)C2CCS(=O)(=O)C2)cc1 (configuration not stated) | inconclusive [inhibitor, single point] | –
17 | CC(CCc1ccccc1)NC(=O)Cn1ncc2c3ccccc3n(Cc3cccc(Cl)c3)c2c1=O (configuration not stated) | inconclusive [inhibitor, partial curve] | –
18 | CCN(Cc1ccccc1)C(=O)c1cccc(OC2CCN(C(=O)C3CC3)CC2)c1 | inconclusive [inhibitor, single point] | –
19 | Cc1c(C)c2c(OCC(=O)NCC(=O)NCC(=O)O)cc3c(c2oc1=O)CCC(C)(C)O3 | inconclusive [inhibitor, single point] | –
20 | S=C(Nc1ccc(Br)cc1Cl)NC1CCN(Cc2ccccc2)CC1 | active: 7.31 µM | –
21 | Cn1cc(C(=O)c2ccc(Cl)cc2Cl)cc1C=O | inconclusive [inhibitor, single point] | –
22 | CCOc1ccc(NC(=O)CSc2oc(-c3ccco3)nc2S(=O)(=O)c2ccc(Cl)cc2)cc1 | inconclusive [inhibitor, single point] | –
23 | CCCOC(=O)Nc1nc(-c2ccc(C)cc2)c(C)s1 | inconclusive [inhibitor, single point] | –

Row | SMILES | Potency | activity change, negative = growth inhibition
24 | COc1cccc(C2CC(c3cccs3)=NN2C(=O)c2ccco2)c1O (configuration not stated) | inactive | –
25 | CCOc1ccc(-c2n[nH]c3c2C(c2cccs2)N(c2ccc(Br)cc2)C3=O)cc1 (configuration not stated) | inconclusive [inhibitor, single point] | –
26 | COc1ccc(NC(=O)CSc2nc(-c3ccccc3)c3ccccc3n2)cc1 | inconclusive [inhibitor, full curve, poor fit] | –
27 | CN(C(=O)C1CCCN1S(=O)(=O)c1ccc(Cl)cc1)c1ccccc1 (configuration not stated) | inactive | –
28 | O=C(Nc1ccc(Oc2ccccc2)nc1)C1CCN(Cc2cccc(F)c2)CC1 | inconclusive [inhibitor, partial curve, poor fit] | –
29 | O=S1(=O)C=C(Sc2nc3cc(Cl)ccc3o2)c2ccccc21 | active: 0.461 µM | –
30 | Cc1cccc(C(=O)NCc2nnc(SCC(=O)Nc3ccccc3F)n2-c2ccccc2)c1 | inconclusive [inhibitor, single point] | –
31 | CCc1cccc(-n2nnc(-c3nc(-c4ccc5c(c4)OCO5)no3)c2C)c1 | inconclusive [inhibitor, single point] | –
32 | c1ccc2c(C[C@@H]3CNCCN3CCCCC3CCCCC3)cccc2c1 | inconclusive [inhibitor, single point] | –
33 | COc1ccccc1CNC(=O)CCS(=O)(=O)c1ccc(Cl)cc1 | inactive | –
34 | COCC(=O)Nc1cc(OC)c(Cl)cc1OC | inactive | –
35 | COc1ccc(C)cc1N(CC(=O)N1CCCCCC1)S(=O)(=O)c1ccccc1 | inconclusive [inhibitor, single point] | –
36 | CCOC(=O)Cn1c(=O)n(Cc2ccc(OC)cc2)c(=O)c2cccnc21 | inconclusive [inhibitor, single point] | –
37 | CCCCOCCCNC(=O)C[C@@H]1C[C@@]2(C(=O)OC)CC(C)(C)CC=C2N(Cc2cccc3ccccc23)C1=O | inconclusive [inhibitor, single point] | –
38 | COc1ccc(N2CCN(C(=O)Nc3ccc(Cl)cc3)CC2)cc1 | inconclusive [inhibitor, partial curve] | –
39 | O=C(CCN1CCN(C(c2ccccc2)c2ccccc2)CC1)N/N=C/c1ccc(O)cc1 | inconclusive [inhibitor, single point] | –
40 | O=C(Nc1ccc(C(F)(F)F)cc1)C1CCN(S(=O)(=O)c2ccc(N3CCCC3=O)cc2)CC1 | inconclusive [inhibitor, full curve, poor fit] | –
41 | CCNC(=O)N1CCCC(C(=O)c2ccc(C(F)(F)F)cc2)C1 (configuration not stated) | inconclusive [inhibitor, partial curve] | –
42 | Cc1c(Nc2nc3ccccc3nc2N2CCN(c3ccccc3)CC2)c(=O)n(-c2ccccc2)n1C | active: 14.6 µM | –
43 | O=C1C2=C(S[C@@H]3O[C@H](CO)[C@@H](O)[C@H](O)[C@H]3O2)C(=O)c2ccccc21 | active: 0.651 µM | –
44 | COc1ccc(S(=O)(=O)N2CCN(C(=O)c3cc(-c4ccc(Br)cc4)n[nH]3)CC2)cc1OC | active: 9.2 µM and active: 7.31 µM | –
45 | CCc1cccc2c(C(=O)CN3C(=O)N(C)C4(CCCCC4)C3=O)c[nH]c12 | active: 8.2 µM | –
46 | COc1ccc(C(C)=O)cc1CN1C(=O)C(C)ON=C1c1ncccc1C (configuration not stated) | inactive | –

Row | SMILES | Potency | activity change, negative = growth inhibition
47 | C[C@H](O)[C@@H]1CN2CCc3c([nH]c4ccccc34)[C@@H]2C[C@@H]1N(C)C(=O)Nc1ccccc1 | inconclusive [inhibitor, partial curve, poor fit] | –
48 | CCSC1=N/C(=C\c2ccc(C(=O)O)cc2)C(=O)S1 | inactive | –
49 | COc1ccc2c(N)c(C(=O)NN)[nH]c2c1 | inconclusive [inhibitor, single point] | –
50 | COC(=O)c1ccc(NC(=O)N(c2ccccc2)c2ccccc2)cc1 | inconclusive [inhibitor, partial curve, poor fit] | –
51 | Cc1cccc(NS(=O)(=O)c2cccc(C(=O)N3CCN(c4ccccn4)CC3)c2)c1 | inactive | –
52 | C=CC[C@@H](CC(=O)N[C@H](CO)Cc1ccccc1)C(=O)N[C@H](COC(=O)[C@@H](CC=C)Cc1ccc(F)cc1)C(C)(C)C | inconclusive [inhibitor, single point] | –
53 | c1ccc(CSc2nc3ccccc3[nH]2)cc1 | inconclusive [inhibitor, single point] | –
54 | Cc1cccc(Oc2ccc(NS(=O)(=O)c3ccc(C)c(C(=O)O)c3)cc2)c1 | inactive | –
55 | Cc1ccc(NC(=O)C2CCCN2C(=O)NC2CCCCC2)cc1 (configuration not stated) | inactive | –
56 | O=C(Nc1ccc2c(c1)OCCO2)c1ccccn1 | inconclusive [inhibitor, partial curve] | –
57 | CCOC(=O)c1[nH]c2ccccc2c1NC(=O)C1CCCCC1 | inactive | –
58 | COC(=O)c1ccc(Oc2nc3c(c(=O)n(C)c(=O)n3C)n2CCC(C)C)cc1 | active: 23.1 µM | –
59 | COc1cccc(C2C(C(=O)OC(C)C)=C(C)N=c3s/c(=C\c4ccc(C(=O)O)cc4)c(=O)n32)c1 (configuration not stated) | active: 18.4 µM | –
60 | CCOc1ccc(CSC(=N)N)cc1[N+](=O)[O-] | inconclusive [inhibitor, single point] | –
61 | Cc1sc2ncnc(SCC(=O)NC(=O)c3cccn3C)c2c1C | inconclusive [inhibitor, single point] | –
62 | COc1ccc(NC(=O)c2cc(-c3ccncc3)nc3ccccc23)c(OC)c1 | inconclusive [inhibitor, single point] | –
63 | CC(CN(C)Cc1ccccc1)OC(=O)c1ccc(F)cc1 (configuration not stated) | active: 10.3 µM | –
64 | COc1ccc(Cn2c(=O)oc3ccccc32)cc1OC | inconclusive [inhibitor, partial curve] | –
65 | COc1ccc2c(c1)c(N=O)c(O)n2C | inconclusive [inhibitor, partial curve] | –
66 | CCOC(=O)C1C(=O)C=C(c2ccc(C)cc2)CC1c1cccc([N+](=O)[O-])c1 (configuration not stated) | inconclusive [inhibitor, single point] | –
67 | O=C(Nc1cccc(S(=O)(=O)N2CCCCCC2)c1)c1cc(=O)c2ccccc2o1 | active: 13 µM | –
